# ± gives the standard deviation of the averaged measurements. Whole data set: some 33,000 sequences, median “E-score (dimensionless, -0.5 to 0.5)” near -0.046, cut for the highest 2% near 0.36. This is one part of the list.
# Test system: T1, SpTbr T-box DNA-binding domain (GST fusion)
# T1 sequence: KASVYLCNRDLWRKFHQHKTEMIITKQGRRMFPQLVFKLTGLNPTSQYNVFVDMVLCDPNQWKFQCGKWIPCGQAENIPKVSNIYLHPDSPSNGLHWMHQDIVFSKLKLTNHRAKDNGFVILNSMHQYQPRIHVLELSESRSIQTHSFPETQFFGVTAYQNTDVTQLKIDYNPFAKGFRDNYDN
# Experiment: PBM E-score of 8-mer (E-score (dimensionless, -0.5 to 0.5)); Tbr is Tbrain of the sea star Patiria miniata (Pm) or the sea urchin Strongylocentrotus purpuratus (Sp); higher = stronger binding preference; most listed sequences are background and not binding sites
# Details: the construct has about 5 more residues each side
# Summary of the method: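 GST-fused Tbr T-box DNA-binding domains (the whole T-box plus about five flanking residues) were expressed in BL21 E. coli at 20 °C and purified by glutathione affinity chromatography. Universal Agilent oligonucleotide arrays were made double-stranded by primer extension, incubated with 200 nM protein in PBS (pH 7.5), then scanned and quantified. Every ungapped 8-mer was scored from probe intensities. The Universal PBM Analysis Suite gave each word an enrichment E-score, averaged over duplicate arrays.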
row,Sequence,PBM E-score of 8-mer
1,AACCAGGG,-0.178 ± 0.02
2,TATATCCA,-0.134 ± 0.0081
3,AAAGCTGG,0.0738 ± 0.048
4,GTGTCAAC,0.4761 ± 0.0027
5,AGAATTTG,-0.0957 ± 0.061
6,AACCCAGC,-0.15 ± 0.025
7,GCCTATAA,-0.0749 ± 0.039
8,GCGGACAC,0.266 ± 0.028
9,GCCTCAGA,-0.159 ± 0.0072
10,CAACCCCG,0.0744 ± 0.027
11,CGAACTCC,0.00536 ± 0.032
12,AATTGTCT,-0.273 ± 0.005
13,TACCGATA,-0.15 ± 0.041
14,AGGGTTGG,-0.194 ± 0.0075
15,CAATTTTA,-0.116 ± 0.058
16,CTTCGCAC,0.461 ± 0.015
17,TGGAACAA,-0.205 ± 0.0048
18,AATGCGCA,-0.0544 ± 0.062
19,AGTTACGG,-0.232 ± 0.0032
20,GTCTCATA,-0.0571 ± 0.0098
21,GTGCGTAA,0.152 ± 0.011
22,ACAAGAGC,0.061 ± 0.026
23,CAGACAGC,-0.00462 ± 0.1
24,ATGTATTG,-0.0608 ± 0.086
25,AATTCCTG,-0.24 ± 0.065

row,Sequence,PBM E-score of 8-mer
1,TCACCACA,0.1938 ± 0.0015
2,ATTACAAA,-0.181 ± 0.0085
3,CAGGTATC,0.0197 ± 0.087
4,AACAATAC,-0.0152 ± 0.036
5,CATTTTTC,-0.0118 ± 0.076
6,AGACCCTA,-0.307 ± 0.055
7,CAAGCCAC,0.0467 ± 0.0027
8,AAGTCTTC,-0.0365 ± 0.052
9,AAATACGC,-0.0158 ± 0.019
10,ATTCAGCG,-0.153 ± 0.038
11,AAATCCGC,0.0994 ± 0.0043
12,CGGCACAA,-0.0814 ± 0.021
13,ACAATTCG,0.141 ± 0.029
14,AGATGTTC,0.0355 ± 0.018
15,GACCCACA,-0.0594 ± 0.081
16,ATACGAAA,-0.138 ± 0.078
17,CCGCCCGA,0.0486 ± 0.086
18,AAATCGAG,0.0633 ± 0.0084
19,ACCAGGGG,-0.0602 ± 0.042
20,ACTAATAC,0.0389 ± 0.009
21,CGGCCTTC,-0.0913 ± 0.022
22,CCATGTAC,-0.0564 ± 0.012
23,GGTTTGTA,-0.247 ± 0.043
24,CGCTGCAC,0.171 ± 0.0084
25,GCCGTAAC,-0.06 ± 0.051

row,Sequence,PBM E-score of 8-mer
1,CTGTTAAA,0.231 ± 0.041
2,CAGCCGGA,0.05 ± 0.018
3,AATACTGC,-0.263 ± 0.019
4,TCGAATCA,0.0875 ± 0.038
5,GCCCACAA,0.0434 ± 0.036
6,ACGGCACC,0.173 ± 0.0075
7,ACTCCTTA,0.0135 ± 0.0089
8,CATTCCTA,-0.321 ± 0.028
9,AAGTATAA,-0.0883 ± 0.04
10,AGCTCGAA,0.058 ± 0.016
11,CAATGGCG,0.0595 ± 0.0016
12,TCGAGGCA,-0.038 ± 0.044
13,GTGCCGCA,0.132 ± 0.044
14,TCATTCCA,-0.178 ± 0.013
15,GAAATGGC,0.00243 ± 0.03
16,AAAAGCGC,0.237 ± 0.065
17,CAGTTACC,-0.0815 ± 0.014
18,GATAAATC,-0.101 ± 0.022
19,ACGGGACT,-0.1061 ± 0.00023
20,ATTGTCAA,0.225 ± 0.019
21,AACTAACC,0.0447 ± 0.049
22,ACCTAAGT,0.0511 ± 0.0061
23,CGAGAGCC,0.136 ± 0.053
24,CAGCGGTA,-0.0664 ± 0.054
25,CATAGAAG,-0.245 ± 0.024

row,Sequence,PBM E-score of 8-mer
1,ACGCCGCA,0.0908 ± 0.075
2,TCCCTCCA,-0.12 ± 0.015
3,AGCCTAGA,-0.192 ± 0.025
4,CGTAGGGC,-0.243 ± 0.014
5,AATTGACA,0.296 ± 0.011
6,CCCGTACA,-0.0732 ± 0.11
7,ACGCTTCT,0.124 ± 0.0055
8,GATAGCTA,-0.0694 ± 0.089
9,CGACTGAC,0.0364 ± 0.013
10,GTACCAGA,-0.149 ± 0.042
11,CAAATATC,-0.126 ± 0.012
12,ATCTCGTG,-0.0327 ± 0.046
13,ATTCCCCC,-0.33 ± 0.043
14,TGGTTTAA,-0.0979 ± 0.037
15,ATACGCAG,0.122 ± 0.033
16,CACGCCCC,0.24 ± 0.013
17,ATCACTCC,0.0406 ± 0.077
18,GAGCTGGA,0.026 ± 0.004
19,GCCAACAC,0.351 ± 0.0088
20,GTGCAGTA,-0.146 ± 0.044
21,CAATCTTC,-0.0401 ± 0.022
22,AACGACCG,-0.117 ± 0.016
23,AGATAGCG,0.129 ± 0.024
24,AGTAAATA,-0.121 ± 0.066
25,ATCTCTGC,-0.0381 ± 0.01

row,Sequence,PBM E-score of 8-mer
1,GTTTGCAA,0.168 ± 0.033
2,AGGTTGTC,0.071 ± 0.0059
3,CGACGCTC,-0.0449 ± 0.04
4,ATATTTTC,-0.194 ± 0.082
5,AAGGCCTC,-0.128 ± 0.049
6,ACGCTGTC,-0.00162 ± 0.016
7,CTGCACAC,0.265 ± 0.025
8,ACTCAAGA,-0.068 ± 0.0055
9,CTGGGCCC,-0.315 ± 0.043
10,CTACGAGC,-0.218 ± 0.049
11,CCTAGTCG,0.183 ± 0.044
12,CGATTCGA,0.0251 ± 0.022
13,CCGCGCAA,0.0651 ± 0.0034
14,AATGCCCC,-0.326 ± 0.004
15,ACACTAGT,0.272 ± 0.042
16,ATGGCTTG,-0.238 ± 0.012
17,ATTTACTG,-0.115 ± 0.0072
18,AACCTGTG,0.179 ± 0.038
19,AATTGGGA,-0.0875 ± 0.07
20,TAACGCTA,0.237 ± 0.031
21,AACAATGT,0.142 ± 0.038
22,CACTCTGG,0.0305 ± 0.029
23,AGCCAATA,-0.235 ± 0.0099
24,AAATAGTC,-0.124 ± 0.026
25,GAGAAGGC,0.124 ± 0.023

row,Sequence,PBM E-score of 8-mer
1,CGAGGTGA,0.418 ± 0.01
2,CCATGGGG,-0.216 ± 0.029
3,CACTCCCC,-0.072 ± 0.14
4,GGAATCTA,-0.174 ± 0.0019
5,AACTTGGG,0.0123 ± 0.019
6,GACCGCCA,-0.0343 ± 0.015
7,CGTGAGTA,0.155 ± 0.037
8,AAGCTCGC,0.143 ± 0.0032
9,CACCACCC,0.12 ± 0.1
10,ATGATCTC,-0.154 ± 0.0075
11,CAACCGCA,-0.193 ± 0.066
12,CGTACTTA,-0.0819 ± 0.045
13,AGCGCTGG,-0.0187 ± 0.052
14,AGGCCGAT,-0.0669 ± 0.039
15,AACTTCCA,-0.0542 ± 0.021
16,AATCCATT,-0.2343 ± 0.0016
17,ATACATCC,-0.0137 ± 0.00069
18,CAATTTCC,-0.117 ± 0.092
19,GATGCAGC,-0.276 ± 0.024
20,CAACTAGG,-0.0728 ± 0.056
21,AAGCTAAC,-0.0669 ± 0.036
22,ATATTGAG,-0.112 ± 0.033
23,CTCCCTGA,-0.114 ± 0.0056
24,CACCAAAG,0.166 ± 0.048
25,CTACCTGA,-0.0289 ± 0.013

row,Sequence,PBM E-score of 8-mer
1,CCGTCTTC,-0.0648 ± 0.033
2,AATTGCCT,-0.267 ± 0.087
3,AGACCCAT,-0.115 ± 0.058
4,ACGGAGAA,-0.0612 ± 0.022
5,CGGGAGCA,0.0513 ± 0.026
6,CACTTTGC,0.253 ± 0.0037
7,GGTGCAGA,0.14 ± 0.056
8,ATGAACCC,-0.156 ± 0.0065
9,TATGTCCA,-0.225 ± 0.028
10,GCAGCAAC,-0.0993 ± 0.071
11,GAGGGGGC,-0.0623 ± 0.0023
12,ATACGCCC,-0.13 ± 0.051
13,CATTACTA,-0.0718 ± 0.0035
14,AGGTTCTA,-0.136 ± 0.037
15,ATCCACGA,-0.187 ± 0.024
16,CAAGCAGC,-0.0345 ± 0.044
17,CACTGTAA,0.17 ± 0.014
18,CTGACACA,0.356 ± 0.022
19,ATGTTCAG,-0.0927 ± 0.015
20,ACAAGAGT,-0.149 ± 0.024
21,ATAAGAAG,-0.157 ± 0.038
22,CGCGTCTA,0.0666 ± 0.015

# Reference: the supplement of paper PMC4166925
